Consider 25 compounds from article PMC4336329 (PLoS ONE, 2015).

The campaign covered roughly 310,000 compounds. About 2,200 (0.71%) showed an effect of 50% or more. Effects have a minus sign here. Some of the results follow.

The target in the test is human ether-à-go-go-related gene (hERG) potassium channel (human, UniProt Q12809). The experiment in a line: primary screen, population patch clamp on CHO cells stably expressing hERG.
human ether-à-go-go-related gene (hERG) potassium channel, sequence (Q12809 whole entry, looked up): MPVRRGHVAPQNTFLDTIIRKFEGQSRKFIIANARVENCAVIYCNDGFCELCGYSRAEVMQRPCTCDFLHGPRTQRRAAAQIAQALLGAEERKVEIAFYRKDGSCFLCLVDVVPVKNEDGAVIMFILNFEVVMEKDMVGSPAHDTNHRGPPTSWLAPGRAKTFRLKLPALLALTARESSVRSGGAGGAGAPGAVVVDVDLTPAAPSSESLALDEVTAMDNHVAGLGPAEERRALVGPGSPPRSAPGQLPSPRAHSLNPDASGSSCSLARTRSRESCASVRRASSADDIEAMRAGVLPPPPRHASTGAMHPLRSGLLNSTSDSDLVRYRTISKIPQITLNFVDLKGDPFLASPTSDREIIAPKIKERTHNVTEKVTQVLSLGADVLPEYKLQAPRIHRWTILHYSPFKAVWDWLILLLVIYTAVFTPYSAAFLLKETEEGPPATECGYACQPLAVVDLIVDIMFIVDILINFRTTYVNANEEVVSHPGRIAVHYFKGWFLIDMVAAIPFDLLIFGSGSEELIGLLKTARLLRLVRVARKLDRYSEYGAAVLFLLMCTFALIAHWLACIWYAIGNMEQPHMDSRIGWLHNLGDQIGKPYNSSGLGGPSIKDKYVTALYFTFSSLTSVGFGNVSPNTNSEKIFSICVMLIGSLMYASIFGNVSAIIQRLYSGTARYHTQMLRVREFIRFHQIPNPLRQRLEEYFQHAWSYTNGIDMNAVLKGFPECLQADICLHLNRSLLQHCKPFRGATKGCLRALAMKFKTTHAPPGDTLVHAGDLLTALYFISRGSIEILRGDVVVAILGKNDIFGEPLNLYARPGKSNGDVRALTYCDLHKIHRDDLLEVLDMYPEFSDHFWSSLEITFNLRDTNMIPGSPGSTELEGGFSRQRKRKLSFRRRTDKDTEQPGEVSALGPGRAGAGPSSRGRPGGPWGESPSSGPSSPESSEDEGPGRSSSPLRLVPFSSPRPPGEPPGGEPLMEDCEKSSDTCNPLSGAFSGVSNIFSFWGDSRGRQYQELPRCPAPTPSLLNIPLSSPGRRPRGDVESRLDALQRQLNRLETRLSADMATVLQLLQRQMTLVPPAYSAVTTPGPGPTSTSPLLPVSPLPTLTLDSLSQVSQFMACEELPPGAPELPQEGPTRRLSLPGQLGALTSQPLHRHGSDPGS
Consider `CCOc1cnc(C(=O)NNC(=O)C(Br)C(C)C)o1` (stereo not shown), for which the “hERG current change (%, negative = inhibition) at 1uM” value stood at 3.22%.

For the compound `COc1cc2c(cc1NC(=O)Cc1ccc(C)cc1)oc1ccccc12`, the “hERG current change (%, negative = inhibition) at 1uM” value is listed as -0.105%.

In the case of `CC(C)N(CC#CC(O)(c1ccccc1)c1ccccc1)CCO`, the “hERG current change (%, negative = inhibition) at 1uM” value was determined as 7.65%.

Regarding `COc1ccc(-c2nn(C)c(=O)c3ccccc23)cc1NC(=O)Cn1nc(C)c2ccccc2c1=O`, the “hERG current change (%, negative = inhibition) at 1uM” value is given as -8.55%.

On to `CC(C)C(=O)OCCN=C1NS(=O)(=O)c2ccccc21`, for which the “hERG current change (%, negative = inhibition) at 1uM” value is reported as -6.65%.

For the compound `CS(=O)(=O)Nc1ccc(C(=O)N2CCc3ccccc3C2)cc1`, the “hERG current change (%, negative = inhibition) at 1uM” value is 3.75%.

Take `COc1ccccc1S(=O)(=O)CC(O)COc1ccc(F)cc1Cl` (stereo not shown): the “hERG current change (%, negative = inhibition) at 1uM” value stood at 12.6%.

For `CCN(CC(=O)Nc1ccc(NC(C)=O)cc1)C(=O)C1CC(=O)N(CCc2ccc(OC)c(OC)c2)C1` (stereo not shown), the “hERG current change (%, negative = inhibition) at 1uM” value amounted to 0.0909%.

Regarding `CNC(=S)NCCCc1ccccc1`, the “hERG current change (%, negative = inhibition) at 1uM” value is recorded as -0.904%.

`COc1cccc(NC(C)C(=O)N2CC(C)OC(C)C2)c1` (stereo not shown): the “hERG current change (%, negative = inhibition) at 1uM” value is reported as 5.02%.

With `CC1CC(C)CN(C(=O)c2ccc(S(=O)(=O)N3CC(C)CC(C)C3)cc2)C1` (stereo not shown), the “hERG current change (%, negative = inhibition) at 1uM” value is -8.04%.

On to `Cn1nc(C(=O)OCC(=O)c2ccc[nH]2)c2ccccc2c1=O`, for which the “hERG current change (%, negative = inhibition) at 1uM” value is 1.29%.

With `CCOC(=O)c1cccc(-c2c(-c3ccccc3)ncc3cc(OC)c(OC)cc23)c1`, the “hERG current change (%, negative = inhibition) at 1uM” value was 16.5%.

Consider `COc1ccc(OC)c(CN2C(=O)c3ccccc3C2C(=O)NCC2CCCO2)c1` (stereo not shown), for which the “hERG current change (%, negative = inhibition) at 1uM” value was 11.1%.

On to `CN(C)CCCN(Cc1cc2cc3c(cc2[nH]c1=O)OCO3)C(=S)NCc1ccco1`, for which the “hERG current change (%, negative = inhibition) at 1uM” value was determined as 6.62%.

For `CCN(CC)CCN1C(=O)C(=O)/C(=C(/O)c2ccc(S(=O)(=O)N3CCOCC3)cc2)C1c1ccc(C(C)(C)C)cc1` (stereo not shown), the “hERG current change (%, negative = inhibition) at 1uM” value is 16.9%.

For `Cc1ccc(CN(Cc2ccccn2)C(=O)Nc2ccc(C)c(C)c2)cc1`, the “hERG current change (%, negative = inhibition) at 1uM” value is recorded as 9.91%.

Regarding `Cc1ccc(N)c(C(=O)CCCCC(=O)O)c1`, the “hERG current change (%, negative = inhibition) at 1uM” value turned out to be 8.97%.

As for `Cc1nc2ccc(NC(=O)c3cnc(Cl)c(Cl)c3)cc2s1`, the “hERG current change (%, negative = inhibition) at 1uM” value is 4.43%.

Turning to `CC1(C)Cc2nc3oc4c(N(CCO)Cc5ccccc5)ncnc4c3cc2CO1`, the “hERG current change (%, negative = inhibition) at 1uM” value was -31.9%.

In the case of `O=C1COc2ccccc2N1Cc1ccc(Cl)cc1`, the “hERG current change (%, negative = inhibition) at 1uM” value stood at 6.82%.

Take `CCNc1nc(NCC)nc(Oc2ccc(N)cc2)n1`: the “hERG current change (%, negative = inhibition) at 1uM” value amounted to 2.88%.

As for `O=[N+]([O-])c1ccccc1S(=O)(=O)N1CCCCC1`, the “hERG current change (%, negative = inhibition) at 1uM” value is 10.7%.

Consider `CC(C)CC(=O)NC(=S)NCCc1ccccc1`, for which the “hERG current change (%, negative = inhibition) at 1uM” value is reported as 2.4%.

For the compound `CCC(=NCCCN1CCOCC1)c1c(O)n(Cc2ccccc2)c(=O)[nH]c1=O`, the “hERG current change (%, negative = inhibition) at 1uM” value is -17.9%.
